Laboratory results as given in the supplement of paper PMC3334620.
Over roughly 33,000 sequences, “E-score (-0.5 to 0.5)” has its median near -0.036; the highest 2% begin near 0.37. The list shows a part of the results.

These sequences were tested against T1, Yer064c (UniProt P40041) (assay: PBM E-score (8-mer binding enrichment) (E-score (-0.5 to 0.5)); higher = stronger / more preferred TF binding; most listed sequences are background and not binding sites). Settings: protein concentration: 200 nM; construct: GST-full length.
T1 sequence: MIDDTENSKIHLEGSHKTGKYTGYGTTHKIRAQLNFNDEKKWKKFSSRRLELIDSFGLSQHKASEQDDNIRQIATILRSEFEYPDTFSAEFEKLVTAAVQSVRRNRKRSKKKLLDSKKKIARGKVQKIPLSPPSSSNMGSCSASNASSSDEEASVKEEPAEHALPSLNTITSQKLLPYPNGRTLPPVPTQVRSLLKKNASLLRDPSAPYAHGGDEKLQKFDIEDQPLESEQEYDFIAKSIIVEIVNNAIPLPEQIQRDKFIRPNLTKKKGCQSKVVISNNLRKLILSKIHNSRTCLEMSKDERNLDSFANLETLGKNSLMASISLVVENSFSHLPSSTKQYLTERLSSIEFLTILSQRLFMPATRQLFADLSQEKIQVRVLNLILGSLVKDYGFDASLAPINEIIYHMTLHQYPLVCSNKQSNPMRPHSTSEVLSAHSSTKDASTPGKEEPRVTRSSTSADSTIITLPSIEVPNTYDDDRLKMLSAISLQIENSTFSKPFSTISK
Method in brief: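 PURExpress in vitro transcription/translation supplied GST-tagged yeast transcription factors, either full-length or DNA-binding domain. Applied at about 100-200 nM to universal all-10-mer Agilent arrays double-stranded by primer extension, the bound protein was detected with fluorescent anti-GST. E-scores, modified Wilcoxon-Mann-Whitney statistics, were given by the Universal PBM Analysis Suite to ungapped eight-base words pooled with their reverse complements after masliner normalisation.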

Point of comparison: TCGGCTAA, “PBM E-score” value 0.0152. Against it:
- AGCGGGAA — lower, -0.153
- ATCATGTA — higher, 0.195
- GATACCGC — lower, -0.156
- ATTCGTAA — higher, 0.0198
- CGAGACCA — lower, 0.00349
- CGTCACAA — lower, -0.0973
- CAGTTAGA — higher, 0.105
- AAGAACTC — higher, 0.0647
- GCCTGAGA — higher, 0.033
- GCAAGCAC — lower, -0.269
- TATACACA — higher, 0.147
- ATGTCATG — higher, 0.214
- TCCTATCA — lower, -0.0302
- ATTCTATA — higher, 0.0793
- ATACGCTG — lower, -0.0609
- GGACGAGA — lower, -0.323
- CTAAGGTC — higher, 0.0684
- CATGGGCG — lower, -0.052
- CTACAAGC — lower, -0.19
- ACAAAATG — lower, -0.157
- CTCGTTCC — lower, -0.0337
- GGTAGCGA — lower, -0.172
- GAAGAGCA — lower, -0.0587
- ACGCGCAC — lower, -0.231
- CTTGCTTA — higher, 0.0548
- CCACGCAA — lower, -0.122
- CAAGAGCA — lower, -0.174
- ATCCACCA — higher, 0.0875
- GAAAAGGC — lower, -0.188
- TACACCGA — higher, 0.034
- ATATGCCA — lower, -0.311
- AACCCGGT — lower, -0.258
- TCAACAAA — higher, 0.0993
- AACACATA — higher, 0.113
- GTGCCTGA — lower, 0.0131
- ACACGGTA — higher, 0.0338
- ACAACGGT — lower, -0.116
- AAACGATG — lower, -0.0198
- TAGCTGCA — lower, -0.231
- ATATGGGC — lower, -0.128
- CCACCGAC — higher, 0.0567
- AATCCTGC — lower, -0.0324
- AAAGAGAT — lower, -0.0903
- TACAGATA — higher, 0.0323
- AGAATGAA — higher, 0.18
- AGACGGTA — lower, -0.0984
- TAGTTGGA — lower, -0.00186
- AACCCGTT — lower, -0.223
- GCTCAGAC — higher, 0.05
- CACCCAGC — lower, -0.185
- ACTCGAGT — higher, 0.283
- AAAACGGG — lower, -0.0311
- AGGCAGCC — lower, -0.219
- AATTGGGG — lower, -0.266
- GAAGCTCA — lower, -0.0335
- CGCCTCCC — lower, -0.374
- ACTACAGG — higher, 0.179
- CAGAGGGC — lower, -0.171
- ACTCGGAC — higher, 0.228
- CTACCAGC — lower, -0.0876
- ATGACGAA — lower, 0.00502
- ACTAAGCT — higher, 0.169
- AGACTGCC — higher, 0.0288
- CACCACCG — lower, -0.249
- CCGTGGGC — lower, -0.156
- AGCCAGTC — higher, 0.126
- AGAAGCGG — lower, -0.208
- AGTATGAA — higher, 0.128
- AGTTTGAG — higher, 0.0805
- GCAGTCGC — higher, 0.209
- GGCCGTGA — lower, -0.0139
- ATAGGGGA — lower, -0.148
- GACGTTGC — lower, -0.196
- ATATCATA — lower, 0.00064
- ATATGCGC — lower, -0.0135
- ATGAGGCA — lower, -0.307
- CATCCAAC — lower, 0.00904
- CTTATAGC — lower, -0.104
- AGGTACCC — lower, -0.0331
- AAGTCCCC — lower, -0.157
- CTATGAGC — higher, 0.234
- CATAGTAG — higher, 0.0263
- AAGTACGG — lower, -0.194
- TAGCTAGA — lower, -0.0401
- GAGGGTGA — higher, 0.114
